Experimental data: the RNAGym collection of RNA variant scans (doi:10.1073/pnas.2313332121)
This sample is rich in variants without activity.

B1: TPR 5TU (parent)
chain: GGAUCUUCUCGAUCUAACAAAAAAGACAAAUCUGCCACAAAGCUUGAGAGCAUCUUCGGAUGCAGAGGCGGCAGCCUUCGGUGGCGCGAUAGCGCCAACGUUCUCAACUAUGACACGCAAAACGCGUGCUCCGUUGAAUGGAGUUUAUCAUG

Variants of: B1
Assay: polymerase ribozyme fitness, log enrichment relative to wild type (log ratio); higher = more active; in vitro selection for triplet polymerase activity
Procedure, shortened: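 The heterodimeric triplet polymerase ribozyme's subunits were each mutagenized into PCR-built libraries and transcribed. Every library was selected once, in triplicate, by annealing with a biotinylated primer, the partner subunit and triplets, incubating frozen at −7 °C, gel-excising extended constructs, capturing on streptavidin beads and running RT-PCR. Input and output libraries were Illumina-sequenced, with genotypes kept only at ≥10 input reads and ≥1 read per output. Fitness, from inverse-variance-weighted replicate averages, is the base-2 logarithm of genotype enrichment over wild-type enrichment.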

| Variant | polymerase ribozyme fitness (log ratio) |
| --- | --- |
| GGAUCUUCUCGAUCUAACAAAAAAGACAAAUCUGCCACAAAGCUUGAGAGCCUCUUCGGAUGCAGAGGAGGGAGCCUUCGGUGGGGCGAUAGCGCCAACGUUCUCAACUAUGACACGCAAAACGCGUGCUCCGUUGAAUGGAGUUUAUCAUG [A52C C69A C72G C85G] | ≤ -4.2 |
| GGAUCUUCUCGAUCUAACAAAAAAGACAAAUCUGCCACAAAGCUUGAGAGCCUCUUCGGAUGCAGAGGCGACAGCCUUCGGUGGCGCGAUUGAGCGAACGUUCUCAACUAUGACACGCAAAACGCGUGCUCAGUUGAAUGGAGUUUAUCAUG [A52C G71A A91U C93A C96G C132A] | ≤ -4.2 |
| GGAUCUUCUCGAUCUAACAAAAAAGACAAAUCUGCCACAAAGCUUGAGAGCCUCUUCGGAUGCAGAGGCGGCUGCCUUCGGUGGCGCGAUAGCGCCAACGUUCUCAACUAUGACACGCAAAACGCGUGCUCCGUUGAAUGGAGUUUAUCAUG [A52C A73U] | -3.14 |
| GGAUCUUCUCGAUCUAACAAAAAAGACAAAUCUGCCACAAAGCUUGAGAGCCUCUUCGGCUGCAGAGGCGGCAGCCUUCGGUGGCGCGAUAGAGCCAACGUUCUCAACUAUGACACGCAAAACGCGUGCUCCGUUGAAUGGAGUUUAUCAUG [A52C A60C C93A] | ≤ -4.2 |
| GGAUCUUCUCGAUCUAACAAAAAAGACAAAUCUGCCACAAAGCUUGAGAGCCUCUUCAGAUGCAGAGGCGGCAGCCUUCGGUGGCGCGAUAGAGCCAACGUUCUCAACUAUGACACGUAAAACGCGUGCUCCGUUGAAUGGAGUUUAUCAUG [A52C G58A C93A C118U] | -3.55 |
| GGAUCUUCUCGAUCUAACAAAAAAGACAAAUCUGCCACAAAGCUUGAGAGCCUCUUCGGAUGCAGAGGCGGCAGCCUUCGGUGGAGCGAUAGCGCCAACGUUCUCAACUAUGACACACAAAACGCGUGCUCAGUUGAAUGGAGUUUAUCAUG [A52C C85A G117A C132A] | ≤ -4.2 |
| GGAUCUUCUCGAUCUAACAAAAAAGACAAAUCUGCCACAAAGCUUGAGAGCCUCUUCGGAUGCAGAGGCGGCAGCCUUCGGUGGCGGGAUAGCGCCAACGUUCUCAACUAUGACACGCAAAACGCGUGCUCCGUUGAAUGGAGUUUAUCAUG [A52C C87G] | ≤ -4.2 |
| GGAUCUUCUCGAUCUAACAAAAAAGACAAAUCUGCCACAAAGCUUGAGAGCCUCUUCGGAUGCAGAGGCGGCGGCCUUCGGUGGAGCGAUAGCGCCAACGUUCUCAACUAUGACACGCAAAACGCGUGCUCCGUUGAAUGGAGUUUAUCAUG [A52C A73G C85A] | -3.88 |
| GGAUCUUCUCGAUCUAACAAAAAAGACAAAUCUGCCACAAAGCUUGAGAGCCUGUUCGGAUGCAGAGGCGGCAGCCUUCGGUGGCGCGAUGGCGCCAACGUUCUCAACUAUGACAAGCAAAACGCGUGCUCUGCUGAAUGGAGUUUAUCAUG [A52C C54G A91G C116A C132U U134C] | ≤ -4.2 |
| GGAUCUUCUCGAUCUAACAAAAAAGACAAAUCUGCCACAAAGCUUGAGAGCCUCUUCGGAUGCAGAGGCGGCAGCCUUCGGUGGCGCGAUAGCGCCAAUGUUCUCAACUAUGACACGCAAAACGCGUGCUCCGUUGAAUGGAGUUUAUCAUG [A52C C99U] | -1.81 |
| GGAUCUUCUCGAUCUAACAAAAAAGACAAAUCUGCCACAAAGCUUGAGAGCCUCUUCGGAUGCAGAGGCGGCAGCCUUCGGUGGCGCGAUAGCGCCAAGGUUCUCAACUAUGACACGCAAAACGCGUGCUCCGUUGAAUGGAGUUUAUCAUG [A52C C99G] | -4.11 |
| GGAUCUUCUCGAUCUAACAAAAAAGACAAAUCUGCCACAAAGCUUGAGAGCCUCUUAGGAUGCAGAGGCGGCAGCCUUCGAUGGCGCGAUAGCGCCAACGUUCUCAACUAUGACACGCAAAACGCGUGCUCCGUUGAAUUGAGUUUAUCAUG [A52C C57A G81A G140U] | ≤ -4.2 |
| GGAUCUUCUCGAUCUAACAAAAAAGACAAAUCUGCCACAAAGCUUGAGAGCCUCUUCGGAUGCAGAGGCGGCAGCCUUCGGUGGCGCGAUAGCGCUAACGUUCUCAACUAUGACACGCUAAACGCGUGCGCCGUUGAAUGGAGUUUAUCAUG [A52C C96U A119U U130G] | ≤ -4.2 |
| GGAUCUUCUCGAUCUAACAAAAAAGACAAAUCUGCCACAAAGCUUGAGAGCCUCUUCGGAUGCAGAGGCGGCAGCCUUCGGUGGCGCGAUAGCGUCAACGUUCUCAACUAUGACGCGCAAAACGCCUGCUCCGUUGAAUGAAGUUUAUCAUG [A52C C95U A115G G126C G141A] | ≤ -4.2 |
| GGAUCUUCUCGAUCUAACAAAAAAGACAAAUCUGCCACAAAGCUUGAGAGCCUCUUCGGAUGCAGAGGCGGCAGCCUUCGGUGGCGCGAUAGCGCCAACGUUAUCAACUAUGUCACGCAAAACGCGUGCUCCGUUGAAUGGUGUUUAUCGUG [A52C C103A A113U A142U A150G] | ≤ -4.2 |
| GGAUCUUCUCGAUCUAACAAAAAAGACAAAUCUGCCACAAAGCUUGAGAGCCUCUUCGGAUGCAGAAGCGGCAGCCUUCGGUGGCGCGAUAGCGCCAACGUUCUCAACUAUGACACGCAAAACGCGUGCUCCGUUGUGUGGGGUUUAUCAUG [A52C G67A A137U A138G A142G] | ≤ -4.2 |
| GGAUCUUCUCGAUCUAACAAAAAAGACAAAUCUGCCACAAAGCUUGAGAGCCUCUUCGGAUGCAGAGGCGGCAGCCUUCGGUGGCGAGAUACCGCCAACGUUCUCAACUAUGACACGCAAAACGCGUGCUCCGUUGAAUGAAGUUUAUCAUG [A52C C87A G92C G141A] | ≤ -4.2 |
| GGAUCUUCUCGAUCUAACAAAAAAGACAAAUCUGCCACAAAGCUUGAGAGCCUCUUUCGAUGCAGAGGCGGCAGCCUUCGGUGGCGCGAUAGGGCCAACGUUCUCAACUAUGACACGCAAAACGCGUGCUCCGUUGAAUGGAGUUUAUCAUG [A52C C57U G58C C93G] | ≤ -4.2 |
| GGAUCUUCUCGAUCUAACAAAAAAGACAAAUCUGCCACAAAGCUUGAGAGCCUCUUCGGAUGCAUAGGCGGCAGCCUUCGGUGGCGCGUUAGCGUCAACGUUCUCAACUAUGACACGCAAAACGCGUGCUCCGUUGAAUGGAGUUUAUUAUG [A52C G65U A89U C95U C149U] | ≤ -4.2 |
